About 220 (0.56%) of roughly 39,000 compounds showed activity. The list shows a part of the results.
Tested on: Escherichia coli K-12 BW25113
Assay: relative growth (OD600 normalised to plate interquartile mean) (fraction); higher = less growth inhibition, active = 0.2 or less
Conditions: 50 µM; LB; incubation time: overnight (16-24 h)
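Further: static incubation at 37 °C against the wild-type strain, values averaged over two biological replicates.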

Structure (SMILES)	relative growth
CC(=O)NO	inactive: 1.09
C[C@H](CO)N1C[C@H](C)[C@@H](CN(C)S(=O)(=O)c2cn(C)cn2)Oc2c(NC(=O)CCCN(C)C)cccc2C1=O	inactive: 0.974
C[C@@H]1CN([C@@H](C)CO)C(=O)Cc2cc(NC(=O)C3CC3)ccc2O[C@@H]1CN(C)C(=O)Nc1ccc2c(c1)OCO2	inactive: 1
C[C@H](CO)N1C[C@H](C)[C@H](CN(C)C(=O)CN(C)C)Oc2cc(C#Cc3cccnc3)ccc2S1(=O)=O	inactive: 0.965
C[C@H]1CN([C@@H](C)CO)S(=O)(=O)c2ccc(C#CC(C)(C)O)cc2O[C@@H]1CN(C)Cc1ccc(F)cc1	inactive: 1.01
C[C@H]1CCCCO[C@@H](CN(C)C(=O)NC2CCCCC2)[C@@H](C)CN([C@@H](C)CO)C(=O)c2cc(NS(=O)(=O)c3ccccc3)ccc2O1	inactive: 1
COc1cc(O)c2c(=O)c(O)c(-c3ccc(O)c(O)c3)oc2c1	inactive: 0.96
C[C@H]1CN([C@@H](C)CO)C(=O)c2cc(NC(=O)Cn3cnnn3)ccc2O[C@@H]1CN(C)C(=O)NC1CCCCC1	inactive: 1
Cc1noc(C)c1NC(=O)N(C)C[C@H]1Oc2ccc(NC(=O)c3ccncc3)cc2CC(=O)N([C@H](C)CO)C[C@@H]1C	inactive: 1
C[C@@H]1CN([C@@H](C)CO)C(=O)c2cc(NC(=O)c3ccncc3)ccc2O[C@@H](C)CCCCO[C@H]1CN(C)S(C)(=O)=O	inactive: 0.987
C[C@H](CO)N1C[C@H](C)[C@H](CN(C)Cc2cccnc2)Oc2cc(C#CCN(C)C)ccc2S1(=O)=O	inactive: 1.01
O=C(O)/C=C/C1=C[C@@H]2[C@@H](O)[C@@H](O)[C@H]1[C@H](C(=O)O[C@@H](Cc1ccc(O)c(O)c1)C(=O)O)[C@@H]2c1ccc(O)c(O)c1	inactive: 0.989
C[C@@H]1CN([C@@H](C)CO)S(=O)(=O)c2ccc(Br)cc2O[C@@H]1CN(C)CC1CCOCC1	inactive: 0.998
C[C@H](CO)N1C[C@H](C)[C@@H](CN(C)C(=O)Nc2ccccc2F)Oc2cc(C#CCN(C)C)ccc2S1(=O)=O	inactive: 0.997
COc1ccc(-c2c(O)c3c(OC)c4c(cc3oc2=O)OC(C)(C)C=C4)cc1	inactive: 1.02
C[C@@H]1CCCCO[C@@H](CN(C)Cc2ccc3c(c2)OCO3)[C@@H](C)CN([C@H](C)CO)C(=O)c2cc(NS(=O)(=O)c3ccc(Cl)cc3)ccc2O1	inactive: 0.985
CN1CCN(C(=O)[C@H]2[C@H](CO)[C@H]3Cn4c(ccc(-c5cncnc5)c4=O)[C@H]3N2CC2CC2)CC1	inactive: 0.962
CC(=O)N(C)CCc1ccc(C)[n+]([O-])c1	inactive: 0.998
C[C@@H]1CN([C@H](C)CO)C(=O)c2cc(NC(=O)c3ccncc3)ccc2O[C@@H](C)CCCCO[C@@H]1CN(C)Cc1ccccc1	inactive: 1
CC(C)CC#Cc1cnc2c(c1)C(=O)N([C@@H](C)CO)C[C@H](C)[C@H](CN(C)C(=O)c1ccc3c(c1)OCO3)O2	inactive: 0.989

Structure (SMILES)	relative growth
C[C@H]1CN([C@@H](C)CO)C(=O)c2cc(NC(=O)C3CC3)ccc2O[C@H]1CN(C)Cc1ccc(C(=O)O)cc1	inactive: 0.863
CCN(CC)CCOc1ccc(C(=C(Cl)c2ccccc2)c2ccccc2)cc1.O=C(O)CC(O)(CC(=O)O)C(=O)O	inactive: 0.86
N=C(N)SCCN	inactive: 0.965
CCCNC(=O)N1C[C@]2(CCN(CC2)S(=O)(=O)c2cccc(c2)OC)c2c(n(c3cc(ccc23)OC)C)[C@H]1CO	inactive: 1.01
COc1cccc(S(=O)(=O)Nc2ccc3c(c2)[C@H]2C[C@@H](CC(=O)NCCc4ccccc4)O[C@H](CO)[C@H]2O3)c1	inactive: 0.984
COc1ccc(NC(=O)Nc2ccc3c(c2)C(=O)N([C@H](C)CO)C[C@@H](C)[C@H](CN(C)Cc2ccc(C(F)(F)F)cc2)OCCCC[C@@H](C)O3)cc1	inactive: 1.03
CCN1C[C@]23CN(C(=O)c4ccn[nH]4)C[C@@H](C[C@H]2S1(=O)=O)O3	inactive: 1.02
COc1ccc(NC(=O)Nc2ccc3c(c2)CC(=O)N([C@@H](C)CO)C[C@@H](C)[C@H](CN(C)Cc2ccc(Cl)c(Cl)c2)O3)cc1	inactive: 0.978
C[C@@H]1CN([C@H](C)CO)C(=O)c2cc(NC(=O)Cc3ccccc3)ccc2O[C@@H](C)CCCCO[C@@H]1CN(C)S(=O)(=O)c1ccc(Cl)cc1	inactive: 1.06
C[C@H]1CN([C@@H](C)CO)C(=O)c2cccc(NS(=O)(=O)c3ccc(F)cc3)c2O[C@@H]1CN(C)C(=O)Nc1cccc2ccccc12	inactive: 0.995
Cc1ccc(S(=O)(=O)Nc2ccc3c(c2)CC(=O)N([C@@H](C)CO)C[C@H](C)[C@H](CN(C)S(=O)(=O)c2ccc(F)cc2)O3)cc1	inactive: 1.02
Cc1ccc(S(=O)(=O)N[C@H]2CC[C@H](CCNC(=O)CN3CCOCC3)O[C@@H]2CO)cc1	inactive: 1
Cc1ccc(S(=O)(=O)Nc2ccc3c(c2)C(=O)N([C@@H](C)CO)C[C@H](C)[C@@H](CN(C)Cc2ccc(C(F)(F)F)cc2)OCCCC[C@@H](C)O3)cc1	inactive: 1.02
COc1ccc2ccccc2c1-c1c(OC)ccc2ccccc12	inactive: 1.02
C[C@H](CO)N1C[C@H](C)[C@@H](CN(C)S(=O)(=O)c2cccs2)Oc2ccc(NS(=O)(=O)c3cn(C)cn3)cc2CC1=O	inactive: 0.975
C[C@@H]1CCCCO[C@H](CN(C)C(=O)Nc2cccc3ccccc23)[C@H](C)CN([C@@H](C)CO)C(=O)c2cc(NC(=O)CCC(F)(F)F)ccc2O1	inactive: 0.961
C[C@@H]1CN([C@H](C)CO)C(=O)c2cc(NS(=O)(=O)c3cccs3)ccc2O[C@@H](C)CCCCO[C@H]1CN(C)Cc1ccc(C(=O)O)cc1	inactive: 1
C[C@@H]1CN([C@H](C)CO)C(=O)c2cc(NC(=O)Nc3cccc4ccccc34)ccc2O[C@@H](C)CCCCO[C@@H]1CN(C)S(=O)(=O)c1cccs1	inactive: 0.986
C[C@@H]1CN([C@@H](C)CO)C(=O)c2cc(NC(=O)CCC(F)(F)F)ccc2O[C@@H](C)CCCCO[C@@H]1CN(C)S(=O)(=O)c1cccs1	inactive: 0.997

From the supplement of paper PMC9446081
